About 14,000 (4.5%) of roughly 310,000 compounds showed an effect of 50% or more. Effects have a minus sign here. The list shows a part of the results.
target: human ether-à-go-go-related gene (hERG) potassium channel (human, UniProt Q12809); test: primary screen, population patch clamp on CHO cells stably expressing hERG
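Further: peak tail current of the secondary pulse compared with the same well before compound.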

Chain of human ether-à-go-go-related gene (hERG) potassium channel (Q12809 whole entry, looked up): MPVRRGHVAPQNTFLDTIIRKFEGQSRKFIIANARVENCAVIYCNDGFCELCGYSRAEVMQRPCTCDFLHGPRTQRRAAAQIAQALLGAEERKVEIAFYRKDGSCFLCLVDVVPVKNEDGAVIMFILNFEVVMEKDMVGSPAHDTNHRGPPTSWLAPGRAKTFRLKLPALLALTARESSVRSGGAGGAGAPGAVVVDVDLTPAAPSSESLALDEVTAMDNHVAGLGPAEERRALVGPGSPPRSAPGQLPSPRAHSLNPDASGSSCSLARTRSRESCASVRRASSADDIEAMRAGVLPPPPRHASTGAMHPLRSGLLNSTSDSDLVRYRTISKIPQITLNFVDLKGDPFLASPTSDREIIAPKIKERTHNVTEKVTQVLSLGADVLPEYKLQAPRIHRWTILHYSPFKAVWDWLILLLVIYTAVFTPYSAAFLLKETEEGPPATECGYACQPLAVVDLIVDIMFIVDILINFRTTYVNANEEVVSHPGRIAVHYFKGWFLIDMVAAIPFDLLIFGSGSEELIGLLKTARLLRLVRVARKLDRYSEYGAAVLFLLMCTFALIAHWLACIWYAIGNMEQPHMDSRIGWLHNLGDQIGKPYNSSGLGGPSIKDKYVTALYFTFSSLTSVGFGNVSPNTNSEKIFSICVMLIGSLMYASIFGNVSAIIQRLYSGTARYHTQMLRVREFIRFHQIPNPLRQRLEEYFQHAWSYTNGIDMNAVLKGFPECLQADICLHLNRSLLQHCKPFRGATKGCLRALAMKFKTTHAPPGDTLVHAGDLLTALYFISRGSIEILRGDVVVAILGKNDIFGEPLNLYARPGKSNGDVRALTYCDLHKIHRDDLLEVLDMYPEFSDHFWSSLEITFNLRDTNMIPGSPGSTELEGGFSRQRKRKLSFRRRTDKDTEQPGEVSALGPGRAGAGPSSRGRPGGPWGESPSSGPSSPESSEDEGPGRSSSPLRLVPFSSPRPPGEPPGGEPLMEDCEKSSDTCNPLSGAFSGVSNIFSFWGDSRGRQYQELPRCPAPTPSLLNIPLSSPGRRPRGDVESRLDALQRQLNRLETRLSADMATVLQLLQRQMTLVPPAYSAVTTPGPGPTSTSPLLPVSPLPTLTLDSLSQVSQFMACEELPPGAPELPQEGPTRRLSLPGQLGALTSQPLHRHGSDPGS

Compound | hERG current change (%, negative = inhibition) at 10uM [%]
O=C1[C@H]2CC3CCC2(O3)[C@@H]2OCCCN12 (some centres unmarked) | 4.02
O=C(OCc1nnc(-c2ccccc2)o1)c1ccc2c(c1)OCO2 | -21.1
NC(=O)C1CCN(C(=O)C2CCC(=O)N(Cc3ccc(Cl)cc3)C2)CC1 (centres unmarked) | 15.3
COc1ccccc1N(C)S(=O)(=O)c1ccc(C(=O)N2CCCc3ccccc32)cc1 | -5.85
Cc1cc2oc(=O)sc2cc1NS(=O)(=O)c1ccccc1 | 18.9
COc1ccc(CNC(=O)C(c2ccccc2F)N(C(=O)c2csnn2)C2CC2)cc1 (centres unmarked) | 0.921
CCOC(=O)c1c[nH]c2c(Cl)c(Cl)ccc2c1=O | 9.54
CC1CCc2sc(C(=O)NCc3ccccn3)cc2C1 (centres unmarked) | -5.07
Cc1cc(C)cc(NC(=O)N2c3ccccc3NC(=O)CC2C)c1 (centres unmarked) | 3.82
O=C(CN1CCC(Cc2ccccc2)CC1)Nc1ccc2c(c1)OCCO2 | -42.8
CC(C)NC(=O)CCn1c(=S)oc2ccccc21 | 5.78
O=C(CC(c1ccccc1)c1ccccc1)Nc1ncn[nH]1 | 0.0287
Cn1cc(S(=O)(=O)NCc2ccco2)c(=O)n(C)c1=O | 3.03
C[C@H](NC(=O)c1ccco1)C(=O)Nc1cccc([N+](=O)[O-])c1 | 9.41
CC1(C)C2CCC(C2)C1(C)N=C1OC(CCl)CS1 (centres unmarked) | 5.72
OCCN=C(c1ccccc1)C12CN3CN(CN(C3)C1)C2 | -12.3
Cc1[nH]c2ccccc2c1C(=O)C(=O)NCCCn1ccnc1 | 10.5
Fc1ccc2nc3c(nc2c1)CCCC3 | 15.3
Cc1oc2c(cc(NS(=O)(=O)c3cccs3)c3ccccc32)c1C(=O)OC(C)C | 10.8
CC(C)=CCc1cc([C@@H]2CC(=O)c3ccc(O)c(CC=C(C)C)c3O2)ccc1O | 0.959
CCOc1ccc(OCC)c(NS(=O)(=O)c2cn(C)cn2)c1 | 19.8
O=C1CS/C(=N/N=C/c2ccco2)N1Cc1ccc(F)cc1 | 6.46
COc1ccc(C(=O)C2CCCN(C(=O)c3cc(C4CC4)[nH]n3)C2)c(C)c1 (centres unmarked) | 17.1
COCCNC(=O)CN(c1ccc(C)cc1)S(=O)(=O)c1ccccc1 | 9.01
CCCS(=O)(=O)N1CCN(C2Cc3ccccc3C2)CC1.O=C(O)C(=O)O | -9.04
CN(C)/C=N/c1c(C#N)cnn1-c1ccc(C(F)(F)F)cn1 | 4.98
